From a compilation of properties of binary mixtures (doi:10.1007/s10953-011-9785-0)
Some of these densities may be calculated back from excess volumes.

Assay: xn = mol fraction of the nth substance listed
Conditions: 101 kPa

CCO + CCCCCC[n+]1ccn(CCC#N)c1.[Br-]
x1 = 1
Conditions	mass density [kg/m3]
293.15 K	789.3
298.15 K	785.5
303.15 K	780.7
313.15 K	772.5
318.15 K	767.7
323.15 K	763.6

CCCCCC[n+]1ccn(CCC#N)c1.[Br-] + CCO
mass density [kg/m3]
Conditions	293.15 K	298.15 K	303.15 K	308.15 K	313.15 K	318.15 K	323.15 K
x2 = 0	1233.4	1229.7	1226.6	1223	1219.2	–	–
x2 = 0.0679	1227.3	1223.7	1220.6	1217.1	–	1209.7	1206.2
x2 = 0.1407	1219.4	–	–	1209.3	1205.6	1202	1198.5
x2 = 0.2074	1210.7	–	1204	1200.4	1196.7	1193	–
x2 = 0.3178	1192.9	1189.3	1186.1	1182.4	1178.7	1174.9	1171.3
x2 = 0.422	1171.9	1168.3	1164.9	1161.2	1157.5	–	1149.9
x2 = 0.5219	1146.5	1142.9	1139.3	1135.6	1131.8	1127.8	–
x2 = 0.5976	1122.6	1118.9	–	–	1107.6	–	1099.8
x2 = 0.7075	1077.3	1073.5	1069.6	1065.7	1061.9	1057.6	–
x2 = 0.7986	1024.8	1021.1	1017	–	1009.3	1004.9	1001
x2 = 0.8955	943.3	–	935.6	–	928.1	–	919.8
x2 = 0.9477	–	874.8	870.8	867.1	863.7	859.7	856.2
